These are yes or no findings as the source states them, for the method shown. Some entries that bind do so weakly or less than the wild type. Sequences can lack the tags named with a protein.
Experiments:
Test in all cases: two-hybrid; Gal4 system in S. cerevisiae AH109; BSL proteins as bait in pGBKT7 (BD-), partners as prey in pGADT7 (AD-); tested on SD/-Leu/-Trp/-His with 1 mM 3-AT; 3 days at 30 °C
[1] = target: T1, BSL1 (BSU1-like 1 Ser/Thr protein phosphatase), Gal4 DNA-binding domain fusion (Arabidopsis thaliana) (UniProt Q8L7U5)
T1 sequence: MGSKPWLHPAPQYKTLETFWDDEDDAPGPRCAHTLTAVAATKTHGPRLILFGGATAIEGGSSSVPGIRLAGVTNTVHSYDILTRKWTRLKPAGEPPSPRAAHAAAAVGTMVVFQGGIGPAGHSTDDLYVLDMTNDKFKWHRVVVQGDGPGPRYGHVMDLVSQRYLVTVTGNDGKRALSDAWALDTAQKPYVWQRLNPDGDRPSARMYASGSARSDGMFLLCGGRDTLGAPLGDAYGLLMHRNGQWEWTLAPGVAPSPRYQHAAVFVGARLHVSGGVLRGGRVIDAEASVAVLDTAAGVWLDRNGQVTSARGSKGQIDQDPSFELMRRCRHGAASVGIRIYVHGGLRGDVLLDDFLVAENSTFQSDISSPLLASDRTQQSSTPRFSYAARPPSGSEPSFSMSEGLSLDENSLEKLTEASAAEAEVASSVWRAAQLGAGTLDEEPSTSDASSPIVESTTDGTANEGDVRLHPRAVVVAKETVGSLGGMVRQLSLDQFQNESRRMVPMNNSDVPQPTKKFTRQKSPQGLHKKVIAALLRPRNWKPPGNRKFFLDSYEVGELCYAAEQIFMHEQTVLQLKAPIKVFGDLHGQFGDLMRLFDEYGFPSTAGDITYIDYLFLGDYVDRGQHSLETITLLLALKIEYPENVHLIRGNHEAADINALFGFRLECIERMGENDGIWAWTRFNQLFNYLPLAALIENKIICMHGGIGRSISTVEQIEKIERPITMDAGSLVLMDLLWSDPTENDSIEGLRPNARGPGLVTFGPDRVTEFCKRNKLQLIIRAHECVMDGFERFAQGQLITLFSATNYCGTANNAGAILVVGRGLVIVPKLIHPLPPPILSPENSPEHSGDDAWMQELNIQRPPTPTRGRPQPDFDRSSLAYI

Chains of the proteins cited; added tags and fusions are not shown.
UniProt Q9LR78: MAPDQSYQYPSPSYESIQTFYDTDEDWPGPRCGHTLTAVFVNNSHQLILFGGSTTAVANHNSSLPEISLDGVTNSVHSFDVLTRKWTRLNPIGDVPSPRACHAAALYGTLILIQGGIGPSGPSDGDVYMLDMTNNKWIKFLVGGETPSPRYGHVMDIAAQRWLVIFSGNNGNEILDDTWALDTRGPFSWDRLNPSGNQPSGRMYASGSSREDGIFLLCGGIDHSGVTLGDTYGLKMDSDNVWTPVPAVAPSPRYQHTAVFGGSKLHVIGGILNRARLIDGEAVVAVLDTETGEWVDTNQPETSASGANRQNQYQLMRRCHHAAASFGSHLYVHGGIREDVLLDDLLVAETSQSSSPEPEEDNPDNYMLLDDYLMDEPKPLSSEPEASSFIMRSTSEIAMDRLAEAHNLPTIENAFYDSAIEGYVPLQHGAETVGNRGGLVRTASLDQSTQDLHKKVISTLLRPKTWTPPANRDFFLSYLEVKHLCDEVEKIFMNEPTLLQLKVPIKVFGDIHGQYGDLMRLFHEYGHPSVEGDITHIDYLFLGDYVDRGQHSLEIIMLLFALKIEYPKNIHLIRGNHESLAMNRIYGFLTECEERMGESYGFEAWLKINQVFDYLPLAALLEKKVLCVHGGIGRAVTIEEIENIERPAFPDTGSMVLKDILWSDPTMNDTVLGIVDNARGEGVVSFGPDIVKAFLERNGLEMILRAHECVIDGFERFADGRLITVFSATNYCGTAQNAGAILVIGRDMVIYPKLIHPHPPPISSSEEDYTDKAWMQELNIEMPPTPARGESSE

[2] = target: T2, BSL2 (BSU1-like 2 Ser/Thr protein phosphatase), Gal4 DNA-binding domain fusion (Arabidopsis thaliana) (UniProt Q9SJF0)
T2 sequence: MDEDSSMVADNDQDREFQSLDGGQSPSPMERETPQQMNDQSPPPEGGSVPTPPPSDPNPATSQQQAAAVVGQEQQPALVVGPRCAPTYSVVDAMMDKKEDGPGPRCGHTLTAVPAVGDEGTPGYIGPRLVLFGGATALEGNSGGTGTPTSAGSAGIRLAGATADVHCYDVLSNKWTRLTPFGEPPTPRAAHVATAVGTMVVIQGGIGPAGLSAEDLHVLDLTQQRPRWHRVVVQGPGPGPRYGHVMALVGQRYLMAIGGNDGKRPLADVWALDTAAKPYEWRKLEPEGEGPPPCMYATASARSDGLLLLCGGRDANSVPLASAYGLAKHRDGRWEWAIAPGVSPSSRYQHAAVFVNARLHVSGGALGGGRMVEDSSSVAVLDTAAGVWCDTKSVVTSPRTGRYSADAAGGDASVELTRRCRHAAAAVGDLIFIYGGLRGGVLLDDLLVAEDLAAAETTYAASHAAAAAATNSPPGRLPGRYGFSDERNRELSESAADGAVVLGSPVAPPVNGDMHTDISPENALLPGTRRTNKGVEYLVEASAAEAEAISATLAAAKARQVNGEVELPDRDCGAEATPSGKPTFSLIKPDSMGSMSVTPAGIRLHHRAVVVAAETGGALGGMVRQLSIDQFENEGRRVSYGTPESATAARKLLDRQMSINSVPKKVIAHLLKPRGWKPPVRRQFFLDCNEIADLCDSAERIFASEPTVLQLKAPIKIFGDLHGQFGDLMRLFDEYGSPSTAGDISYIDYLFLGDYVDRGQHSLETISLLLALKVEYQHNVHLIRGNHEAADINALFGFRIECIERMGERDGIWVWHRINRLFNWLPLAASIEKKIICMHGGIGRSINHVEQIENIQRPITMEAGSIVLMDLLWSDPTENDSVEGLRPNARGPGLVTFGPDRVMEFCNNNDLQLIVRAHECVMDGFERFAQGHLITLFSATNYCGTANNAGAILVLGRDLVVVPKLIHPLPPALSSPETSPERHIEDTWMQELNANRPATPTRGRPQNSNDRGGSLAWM

[3] = target: T3, BSL3 (BSU1-like 3 Ser/Thr protein phosphatase), Gal4 DNA-binding domain fusion (Arabidopsis thaliana) (UniProt Q9SHS7)
T3 sequence: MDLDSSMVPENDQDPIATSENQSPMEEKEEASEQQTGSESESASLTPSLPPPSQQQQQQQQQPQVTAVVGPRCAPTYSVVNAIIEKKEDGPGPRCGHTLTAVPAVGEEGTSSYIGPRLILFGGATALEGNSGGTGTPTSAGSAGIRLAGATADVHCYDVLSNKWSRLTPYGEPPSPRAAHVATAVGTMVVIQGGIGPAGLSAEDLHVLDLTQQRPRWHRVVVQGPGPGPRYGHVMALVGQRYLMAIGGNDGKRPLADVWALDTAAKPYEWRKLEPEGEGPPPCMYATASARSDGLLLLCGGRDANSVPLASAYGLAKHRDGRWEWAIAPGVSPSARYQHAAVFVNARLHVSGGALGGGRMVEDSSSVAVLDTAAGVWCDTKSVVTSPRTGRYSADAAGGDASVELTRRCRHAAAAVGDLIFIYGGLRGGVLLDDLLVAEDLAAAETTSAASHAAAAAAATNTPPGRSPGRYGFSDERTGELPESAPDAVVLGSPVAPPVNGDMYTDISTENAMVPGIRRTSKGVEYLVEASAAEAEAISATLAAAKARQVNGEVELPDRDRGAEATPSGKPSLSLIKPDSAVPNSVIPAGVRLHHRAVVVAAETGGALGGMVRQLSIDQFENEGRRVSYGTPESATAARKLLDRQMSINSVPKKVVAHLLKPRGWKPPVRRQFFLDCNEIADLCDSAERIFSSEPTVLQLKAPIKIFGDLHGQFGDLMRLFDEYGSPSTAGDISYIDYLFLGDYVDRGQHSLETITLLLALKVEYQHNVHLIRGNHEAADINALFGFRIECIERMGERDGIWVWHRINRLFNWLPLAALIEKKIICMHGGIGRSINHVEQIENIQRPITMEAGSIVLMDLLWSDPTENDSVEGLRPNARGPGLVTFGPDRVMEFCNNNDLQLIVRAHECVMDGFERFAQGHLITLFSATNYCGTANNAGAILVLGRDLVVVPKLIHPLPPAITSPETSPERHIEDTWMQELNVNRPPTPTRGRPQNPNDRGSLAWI

[4] = target: BSU1 (bri1 Suppressor 1) phosphatase, Gal4 DNA-binding domain fusion (Arabidopsis thaliana) (UniProt Q9LR78)

B1: MAPK 3 (MPK3), Gal4 activation domain fusion (enzyme, UniProt Q39023 1-370)
chain: MNTGGGQYTDFPAVETHGGQFISYDIFGSLFEITSKYRPPIIPIGRGAYGIVCSVLDTETNELVAMKKIANAFDNHMDAKRTLREIKLLRHLDHENIIAIRDVVPPPLRRQFSDVYISTELMDTDLHQIIRSNQSLSEEHCQYFLYQLLRGLKYIHSANIIHRDLKPSNLLLNANCDLKICDFGLARPTSENDFMTEYVVTRWYRAPELLLNSSDYTAAIDVWSVGCIFMELMNRKPLFPGKDHVHQMRLLTELLGTPTESDLGFTHNEDAKRYIRQLPNFPRQPLAKLFSHVNPMAIDLVDRMLTFDPNRRITVEQALNHQYLAKLHDPNDEPICQKPFSFEFEQQPLDEEQIKEMIYQEAIALNPTYG
[1]
  binding: no binding
[2]
  binding: binds
[3]
  binding: binds
[4]
  binding: binds

B2: MAPKK 4 (MKK4), Gal4 activation domain fusion (enzyme, UniProt O80397 1-366)
chain: MRPIQSPPGVSVPVKSRPRRRPDLTLPLPQRDVSLAVPLPLPPTSGGSGGSSGSAPSSGGSASSTNTNSSIEAKNYSDLVRGNRIGSGAGGTVYKVIHRPSSRLYALKVIYGNHEETVRRQICREIEILRDVNHPNVVKCHEMFDQNGEIQVLLEFMDKGSLEGAHVWKEQQLADLSRQILSGLAYLHSRHIVHRDIKPSNLLINSAKNVKIADFGVSRILAQTMDPCNSSVGTIAYMSPERINTDLNQGKYDGYAGDIWSLGVSILEFYLGRFPFPVSRQGDWASLMCAICMSQPPEAPATASPEFRHFISCCLQREPGKRRSAMQLLQHPFILRASPSQNRSPQNLHQLLPPPRPLSSSSSPTT
[1]
  binding: no binding
[2]
  binding: no binding
[3]
  binding: no binding
[4]
  binding: no binding

B3: MAPKK 5 (MKK5), Gal4 activation domain fusion (enzyme, UniProt Q8RXG3 1-348)
chain: MKPIQSPSGVASPMKNRLRKRPDLSLPLPHRDVALAVPLPLPPPSSSSSAPASSSAISTNISAAKSLSELERVNRIGSGAGGTVYKVIHTPTSRPFALKVIYGNHEDTVRRQICREIEILRSVDHPNVVKCHDMFDHNGEIQVLLEFMDQGSLEGAHIWQEQELADLSRQILSGLAYLHRRHIVHRDIKPSNLLINSAKNVKIADFGVSRILAQTMDPCNSSVGTIAYMSPERINTDLNHGRYDGYAGDVWSLGVSILEFYLGRFPFAVSRQGDWASLMCAICMSQPPEAPATASQEFRHFVSCCLQSDPPKRWSAQQLLQHPFILKATGGPNLRQMLPPPRPLPSAS
[1]
  binding: no binding
[2]
  binding: no binding
[3]
  binding: no binding
[4]
  binding: no binding

B4: … (SPCH), Gal4 activation domain fusion (protein, UniProt Q700C7 1-364)
chain: MQEIIPDFLEECEFVDTSLAGDDLFAILESLEGAGEISPTAASTPKDGTTSSKELVKDQDYENSSPKRKKQRLETRKEEDEEEEDGDGEAEEDNKQDGQQKMSHVTVERNRRKQMNEHLTVLRSLMPCFYVKRGDQASIIGGVVEYISELQQVLQSLEAKKQRKTYAEVLSPRVVPSPRPSPPVLSPRKPPLSPRINHHQIHHHLLLPPISPRTPQPTSPYRAIPPQLPLIPQPPLRSYSSLASCSSLGDPPPYSPASSSSSPSVSSNHESSVINELVANSKSALADVEVKFSGANVLLKTVSHKIPGQVMKIIAALEDLALEILQVNINTVDETMLNSFTIKIGIECQLSAEELAQQIQQTFC
[1]
  binding: no binding
[2]
  binding: no binding
[3]
  binding: no binding
[4]
  binding: no binding

B5: ICE1/SCREAM (SCRM), Gal4 activation domain fusion (protein, UniProt Q9LSE2 1-494)
chain: MGLDGNNGGGVWLNGGGGEREENEEGSWGRNQEDGSSQFKPMLEGDWFSSNQPHPQDLQMLQNQPDFRYFGGFPFNPNDNLLLQHSIDSSSSCSPSQAFSLDPSQQNQFLSTNNNKGCLLNVPSSANPFDNAFEFGSESGFLNQIHAPISMGFGSLTQLGNRDLSSVPDFLSARSLLAPESNNNNTMLCGGFTAPLELEGFGSPANGGFVGNRAKVLKPLEVLASSGAQPTLFQKRAAMRQSSGSKMGNSESSGMRRFSDDGDMDETGIEVSGLNYESDEINESGKAAESVQIGGGGKGKKKGMPAKNLMAERRRRKKLNDRLYMLRSVVPKISKMDRASILGDAIDYLKELLQRINDLHNELESTPPGSLPPTSSSFHPLTPTPQTLSCRVKEELCPSSLPSPKGQQARVEVRLREGRAVNIHMFCGRRPGLLLATMKALDNLGLDVQQAVISCFNGFALDVFRAEQCQEGQEILPDQIKAVLFDTAGYAGMI
[1]
  binding: no binding
[2]
  binding: no binding
[3]
  binding: no binding
[4]
  binding: no binding
